Measured values as given in article PMC12820563.
The list shows a part of the results. The list includes weakly bound sequences.

Target: T1, MBP-FoxP3dN (UniProt Q99JB6)
T1 sequence: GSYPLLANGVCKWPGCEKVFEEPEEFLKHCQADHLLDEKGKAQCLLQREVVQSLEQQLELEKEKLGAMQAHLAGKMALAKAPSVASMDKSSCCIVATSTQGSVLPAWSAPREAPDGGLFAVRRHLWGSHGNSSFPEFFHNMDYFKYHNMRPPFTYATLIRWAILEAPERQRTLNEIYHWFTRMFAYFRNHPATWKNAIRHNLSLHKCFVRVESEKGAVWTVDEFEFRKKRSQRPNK
Experiment: PD-seq (MBP pull-down with sequencing)
Conditions: 20 mM Tris-HCl pH 7.5, 100 mM NaCl, 1.5 mM MgCl2, 0.4 uM protein, 0.1 uM dsDNA library, 30 min, room temperature, amylose pull-down; high values mean tight binding; double strand, one strand shown

Q: With “GATGATTGTTCTCCCAGCTGATGAATTATTCTGATCGAGTAAACAAATTTTCCTAATCTTTCTGTTCAAGCGCCATCTAC” as the sequence, how does the binding signal (RPM ratio (pull-down/input)) read?
A: 0.247

Q: With “GATGATTGTTCTCCCAGCTGATGAATTCACTAGTTCGAGTAAACAAATTTTCCTAATCTTTCTGTTCAAGCGCCATCTAC” as the sequence, how does the binding signal (RPM ratio (pull-down/input)) read?
A: 0.437

Q: For “GATGATTGTTCTCCCAGCTGATGAATTTAACGCCTCGAGTAAACAAATTTTCCTAATCTTTCTGTTCAAGCGCCATCTAC”, which binding signal (RPM ratio (pull-down/input)) is on record?
A: 0.628

Q: For “GATGATTGTTCTCCCAGCTGATGAATTTGAAACATCGAGTAAACAAATTTTCCTAATCTTTCTGTTCAAGCGCCATCTAC”, which binding signal (RPM ratio (pull-down/input)) is on record?
A: 0.457

Q: With “GATGATTGTTCTCCCAGCTGATGAATTGTACGTCTCGAGTAAACAAATTTTCCTAATCTTTCTGTTCAAGCGCCATCTAC” as the sequence, how does the binding signal (RPM ratio (pull-down/input)) read?
A: 0.561

Q: “GATGATTGTTCTCCCAGCTGATGAATTTCCCCTTTCGAGTAAACAAATTTTCCTAATCTTTCTGTTCAAGCGCCATCTAC” was tested. Which binding signal (RPM ratio (pull-down/input)) did it give?
A: 0.24

Q: “GATGATTGTTCTCCCAGCTGATGAATTTAGCTGGTCGAGTAAACAAATTTTCCTAATCTTTCTGTTCAAGCGCCATCTAC” was tested. Which binding signal (RPM ratio (pull-down/input)) did it give?
A: 0.756

Q: With “GATGATTGTTCTCCCAGCTGATGAATTTCCTTTGTCGAGTAAACAAATTTTCCTAATCTTTCTGTTCAAGCGCCATCTAC” as the sequence, how does the binding signal (RPM ratio (pull-down/input)) read?
A: 0.434

Q: With “GATGATTGTTCTCCCAGCTGATGAATTCATGCGGTCGAGTAAACAAATTTTCCTAATCTTTCTGTTCAAGCGCCATCTAC” as the sequence, how does the binding signal (RPM ratio (pull-down/input)) read?
A: 0.626

Q: Which binding signal (RPM ratio (pull-down/input)) does the source give for “GATGATTGTTCTCCCAGCTGATGAATTACAAACTTCGAGTAAACAAATTTTCCTAATCTTTCTGTTCAAGCGCCATCTAC” here?
A: 0.7

Q: For “GATGATTGTTCTCCCAGCTGATGAATTTGGCTATTCGAGTAAACAAATTTTCCTAATCTTTCTGTTCAAGCGCCATCTAC”, which binding signal (RPM ratio (pull-down/input)) is on record?
A: 2.06

Q: For “GATGATTGTTCTCCCAGCTGATGAATTGGGATTTTCGAGTAAACAAATTTTCCTAATCTTTCTGTTCAAGCGCCATCTAC”, which binding signal (RPM ratio (pull-down/input)) is on record?
A: 0.534

Q: “GATGATTGTTCTCCCAGCTGATGAATTTAGATGTTCGAGTAAACAAATTTTCCTAATCTTTCTGTTCAAGCGCCATCTAC” was tested. Which binding signal (RPM ratio (pull-down/input)) did it give?
A: 1.78

Q: For “GATGATTGTTCTCCCAGCTGATGAATTTGCTTCATCGAGTAAACAAATTTTCCTAATCTTTCTGTTCAAGCGCCATCTAC”, which binding signal (RPM ratio (pull-down/input)) is on record?
A: 1.37

Q: “GATGATTGTTCTCCCAGCTGATGAATTCCAGGCGTCGAGTAAACAAATTTTCCTAATCTTTCTGTTCAAGCGCCATCTAC” was tested. Which binding signal (RPM ratio (pull-down/input)) did it give?
A: 0.436

Q: For “GATGATTGTTCTCCCAGCTGATGAATTGTCGGGTTCGAGTAAACAAATTTTCCTAATCTTTCTGTTCAAGCGCCATCTAC”, which binding signal (RPM ratio (pull-down/input)) is on record?
A: 0.372

Q: Which binding signal (RPM ratio (pull-down/input)) does the source give for “GATGATTGTTCTCCCAGCTGATGAATTTGTGCTGTCGAGTAAACAAATTTTCCTAATCTTTCTGTTCAAGCGCCATCTAC” here?
A: 2.88

Q: With “GATGATTGTTCTCCCAGCTGATGAATTTTCGATGTCGAGTAAACAAATTTTCCTAATCTTTCTGTTCAAGCGCCATCTAC” as the sequence, how does the binding signal (RPM ratio (pull-down/input)) read?
A: 0.404

Q: How did the binding signal (RPM ratio (pull-down/input)) turn out when “GATGATTGTTCTCCCAGCTGATGAATTTGCCCCCTCGAGTAAACAAATTTTCCTAATCTTTCTGTTCAAGCGCCATCTAC” was run?
A: 0.571

Q: For “GATGATTGTTCTCCCAGCTGATGAATTTAGCAGGTCGAGTAAACAAATTTTCCTAATCTTTCTGTTCAAGCGCCATCTAC”, which binding signal (RPM ratio (pull-down/input)) is on record?
A: 0.708

Q: With “GATGATTGTTCTCCCAGCTGATGAATTTGCCCTATCGAGTAAACAAATTTTCCTAATCTTTCTGTTCAAGCGCCATCTAC” as the sequence, how does the binding signal (RPM ratio (pull-down/input)) read?
A: 0.491

Q: With “GATGATTGTTCTCCCAGCTGATGAATTGAGCAGTTCGAGTAAACAAATTTTCCTAATCTTTCTGTTCAAGCGCCATCTAC” as the sequence, how does the binding signal (RPM ratio (pull-down/input)) read?
A: 0.808

Q: For “GATGATTGTTCTCCCAGCTGATGAATTTAGCGTATCGAGTAAACAAATTTTCCTAATCTTTCTGTTCAAGCGCCATCTAC”, which binding signal (RPM ratio (pull-down/input)) is on record?
A: 1.54

Q: Which binding signal (RPM ratio (pull-down/input)) does the source give for “GATGATTGTTCTCCCAGCTGATGAATTATCCCACTCGAGTAAACAAATTTTCCTAATCTTTCTGTTCAAGCGCCATCTAC” here?
A: 0.322

Q: How did the binding signal (RPM ratio (pull-down/input)) turn out when “GATGATTGTTCTCCCAGCTGATGAATTCATAAGATCGAGTAAACAAATTTTCCTAATCTTTCTGTTCAAGCGCCATCTAC” was run?
A: 0.218

Q: For “GATGATTGTTCTCCCAGCTGATGAATTCACAGTATCGAGTAAACAAATTTTCCTAATCTTTCTGTTCAAGCGCCATCTAC”, which binding signal (RPM ratio (pull-down/input)) is on record?
A: 0.581

Q: “GATGATTGTTCTCCCAGCTGATGAATTCCTATTGTCGAGTAAACAAATTTTCCTAATCTTTCTGTTCAAGCGCCATCTAC” was tested. Which binding signal (RPM ratio (pull-down/input)) did it give?
A: 0.764

Q: Which binding signal (RPM ratio (pull-down/input)) does the source give for “GATGATTGTTCTCCCAGCTGATGAATTAAGTTTTTCGAGTAAACAAATTTTCCTAATCTTTCTGTTCAAGCGCCATCTAC” here?
A: 2.4

Q: Which binding signal (RPM ratio (pull-down/input)) does the source give for “GATGATTGTTCTCCCAGCTGATGAATTTCGTCTATCGAGTAAACAAATTTTCCTAATCTTTCTGTTCAAGCGCCATCTAC” here?
A: 0.908

Q: Which binding signal (RPM ratio (pull-down/input)) does the source give for “GATGATTGTTCTCCCAGCTGATGAATTGGGACGCTCGAGTAAACAAATTTTCCTAATCTTTCTGTTCAAGCGCCATCTAC” here?
A: 0.447

Q: How did the binding signal (RPM ratio (pull-down/input)) turn out when “GATGATTGTTCTCCCAGCTGATGAATTACGATAGTCGAGTAAACAAATTTTCCTAATCTTTCTGTTCAAGCGCCATCTAC” was run?
A: 0.683
